# This is one part of the list. The full chains were built here from the parent and the listed change. Values near 0.05 are background.
# B1: TEV protease; numbered along this chain (parent)
# chain: MGESLFKGPRDYNPISSSICHLTNESDGHTTSLYGIGFGPFIITNKHLFRRNNGTLVVQSLHGVFKVKDTTTLQQHLVDGRDMIIIRMPKDFPPFPQKLKFREPQREERICLVTTNFQTKSMSSMVSDTSCTFPSGDGIFWKHWIQTKDGQCGSPLVSTRDGFIVGIHSASNFTNTNNYFTSVPKNFMELLTNQEAQQWVSGWRLNADSVLWGGHKVFMVKPEEPFQPVKEATQL
# Variants of: B1
# Experiment: raw area under fraction-flipped curve 0-4 h after induction (AUC4h, not background-subtracted), DNA-recorder readout of cleavage of the substrate (dimensionless); higher = more cleavage of the substrate by the protease variant
# Conditions: temperature: 34 °C; time window: 0-4 h after rhamnose induction
# Experimental: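 In vivo DNA recorder in E. coli TOP10(DE3) ΔrhaA at 34 °C. Each TEVp single-site mutant (parent TEVp 0) is paired with a single-site variant of the 7-mer TEVs (canonical ENLYFQ|S). The substrate sits between flexible linkers in a Bxb1-sfGFP-TEVs-SsrA fusion, so cleavage stabilises Bxb1 and speeds flipping of a recombination array, read by NGS. The value is the raw area under the fraction-flipped curve over 0-4 h after rhamnose induction (AUC4h), with ≥20 reads per time point. It is not background-subtracted; inactive controls average about 0.047.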
# 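Further: Bxb1 expression induced with 0.2% (w/v) L-rhamnose at OD600 near 0.5, cultures sampled hourly, flipped fraction per protease–substrate barcode pair counted by paired-end Illumina sequencing.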
Variant,area with substrate FNLYFQS,area with substrate GNLYFQS,area with substrate INLYFQS,area with substrate KNLYFQS,area with substrate NNLYFQS,area with substrate PNLYFQS,area with substrate QNLYFQS,area with substrate SNLYFQS,area with substrate MNLYFQS,area with substrate TNLYFQS
T129D,0.0766,0.0701,0.0745,0.0685,0.057,0.0411,0.0735,0.0718,–,–
T132N,0.0487,–,–,–,0.0677,0.0499,–,0.0592,0.0665,0.0675
S135H,0.0488,–,–,–,–,–,–,–,0.0613,–
D137A,0.0604,–,–,–,–,–,–,–,–,–
H143N,0.0532,–,–,–,–,–,–,–,–,0.052
T147V,0.0548,–,0.105,–,–,–,–,0.0523,–,–
D149I,0.0502,–,0.0663,–,0.0488,–,–,–,–,–
G150Y,0.0531,0.0854,–,0.0537,0.0569,0.0701,–,0.0447,–,0.0585
G153C,0.0579,–,0.0798,0.0867,0.0739,0.08,–,–,–,0.0343
S154A,0.0622,0.0634,0.0569,–,–,0.065,–,0.0668,0.0773,0.0593
S154D,0.0599,–,0.0593,–,–,0.0336,0.0403,0.0443,–,0.0663
S154V,0.0527,–,–,0.0546,–,–,–,–,0.0685,–
P155G,0.0558,–,0.0516,0.0786,–,–,–,0.0624,0.0538,0.0501
L156Y,0.06,0.0588,–,–,0.0495,–,–,0.0642,0.0496,–
T159K,0.0628,0.0483,0.0709,–,–,–,–,–,–,0.0432
T159P,0.0442,–,–,–,–,0.069,–,0.0716,0.0735,0.0651
G162N,0.0624,–,–,0.0717,–,–,–,–,0.0656,0.0473
F163N,0.0745,0.0666,–,0.0725,–,–,–,–,–,–
F163P,0.0731,–,–,–,–,–,–,–,0.0585,–
F163Y,0.0586,–,–,0.074,0.057,–,–,0.0683,0.0667,–
A170E,0.0933,–,–,–,–,0.0658,–,–,–,0.0762
A170K,0.0577,–,–,0.0658,–,–,–,0.0557,0.0606,–
S171Y,0.0554,0.0623,–,–,0.0533,–,–,–,0.0633,0.0578
N172H,0.0682,–,–,0.0601,–,–,–,0.0594,–,–

Variant,area with substrate FNLYFQS,area with substrate GNLYFQS,area with substrate INLYFQS,area with substrate KNLYFQS,area with substrate NNLYFQS,area with substrate PNLYFQS,area with substrate QNLYFQS,area with substrate SNLYFQS,area with substrate MNLYFQS,area with substrate TNLYFQS
N172V,0.055,–,–,0.0515,–,0.0681,–,–,–,–
T174C,0.067,–,–,–,–,–,–,0.0441,0.0564,–
T174F,0.0604,–,0.0608,–,–,–,–,0.0443,–,–
N175A,0.077,0.0693,0.0557,0.0693,–,0.0455,–,0.072,–,0.0628
N177T,0.092,0.0088,–,0.087,–,0.0992,–,0.0803,–,0.0881
Y179D,0.0547,–,–,–,0.0577,–,–,–,–,0.0477
F180H,0.0596,–,–,–,0.0438,0.069,–,–,–,–
S182E,0.0439,–,–,0.0619,–,0.0535,–,–,–,–
S182H,0.0571,0.0578,–,0.0675,–,0.0586,–,–,0.0406,0.06
S182V,0.0692,0.0737,–,–,–,–,0.066,0.0462,–,0.0591
K185L,0.0491,0.0659,0.0627,–,0.0466,–,–,–,–,0.073
K185N,0.0366,–,–,0.0626,–,0.0622,–,0.0739,–,0.0812
F187A,0.0716,0.0541,–,0.0474,0.0424,–,–,–,0.0577,–
F187G,0.0895,0.0636,0.0549,0.0691,–,0.0623,–,0.0542,0.0456,0.0364
E189Y,0.0614,–,–,–,–,–,–,–,–,–
L190T,0.0682,–,0.0605,–,–,0.0674,–,–,0.0729,–
N193K,0.0592,–,–,–,–,0.0844,–,–,–,–
Q194C,0.0754,0.0669,0.0772,–,0.0466,–,–,0.0745,0.0656,–
A196V,0.0871,0.0619,0.0637,0.0598,0.0543,0.083,–,–,–,–
Q197R,0.0722,0.0564,–,–,–,–,–,–,0.0554,–
Q198G,0.0929,–,0.0606,–,0.0628,–,–,–,–,0.0587
W199Y,0.0504,–,0.0513,–,–,–,–,0.0568,0.0701,0.0062
V200D,0.0517,–,–,–,–,0.0749,–,–,–,0.0433

# Same assay, conditions: temperature: 34 °C; time window: 0-4 h after rhamnose induction
Variant,area with substrate WNLYFQS,area with substrate YNLYFQS,area with substrate HNLYFQS,area with substrate LNLYFQS,area with substrate RNLYFQS,area with substrate VNLYFQS
T132N,0.068,0.0685,–,–,–,–
S135H,0.0731,–,0.0565,0.0586,–,–
H143N,–,0.0435,0.0666,–,–,–
T147V,–,0.0869,0.054,0.07,–,–
D149I,0.0302,–,0.0521,–,0.0623,0.0658
G150Y,0.0628,0.0446,0.0624,0.0163,–,–
G153C,0.0373,–,0.0398,0.0569,–,0.0448
S154A,0.0596,0.0529,0.0718,0.0604,0.0804,–
S154D,–,0.0318,0.0548,0.0565,–,–
S154V,0.0524,–,0.0591,0.0459,–,–
P155G,0.0686,0.0558,0.0621,–,–,–
L156Y,0.0354,–,0.0543,–,–,0.0475
T159K,0.0657,0.0646,0.0633,0.0557,–,–
T159P,–,0.0648,–,–,–,–
G162N,0.0631,0.0494,0.0529,–,–,–
F163N,0.052,–,–,–,–,–
F163P,0.059,0.0457,–,–,–,–
F163Y,0.0683,0.0402,–,–,–,0.0686
A170E,0.0575,0.0562,–,–,–,–
A170K,–,–,0.0666,0.0584,–,0.0597
S171Y,–,0.062,0.0603,0.0676,–,–

Variant,area with substrate WNLYFQS,area with substrate YNLYFQS,area with substrate HNLYFQS,area with substrate LNLYFQS,area with substrate RNLYFQS,area with substrate VNLYFQS
N172V,–,–,0.0759,0.052,–,–
T174C,0.0562,–,–,0.0643,–,–
T174F,–,–,0.0603,–,–,–
N175A,0.0571,0.0586,0.061,–,0.0641,0.0634
N177T,0.0725,0.0643,0.0797,0.0976,–,0.0966
Y179D,0.0728,–,–,–,–,–
F180H,0.0624,–,–,–,–,–
S182E,0.0578,–,–,–,–,–
S182H,0.0474,0.0525,0.0729,0.0633,–,–
S182V,0.0886,0.0832,0.0564,–,–,–
K185L,0.0686,–,–,0.0656,0.0843,–
K185N,0.0561,–,–,–,–,–
F187A,0.0502,0.0523,0.053,–,–,–
F187G,0.0633,0.0553,0.0409,0.0529,0.0576,–
L190T,–,–,–,0.0697,–,–
N193K,–,0.0687,0.0611,–,–,–
Q194C,0.0492,0.0395,0.0815,0.0646,0.0681,0.0638
A196V,–,0.0687,–,0.0656,–,–
Q198G,–,0.0619,0.0646,–,–,–
W199Y,0.0573,–,0.0616,–,–,–
V200D,0.061,0.0574,–,–,0.0682,0.0551
